Results from PubChem BioAssay AID540317 (National Center for Advancing Translational Sciences (NCATS), 2011).
Where “and” joins values, the source holds several entries; their conditions need not be identical. Identical values can stand only once. Among all 390,000 compounds or so, about 2,200 (0.56%) were called active. Inconclusive results, whose numbers are uncertain, are shown with a selection of clear calls. Calls follow the shape of the dose curve; as a rule, active = well fitted inhibition curve with a large enough effect; inconclusive = small, poorly fitted or top-dose-only effect; inactive = no such curve, though single readings can be large or run the other way. Potencies of inconclusive entries are doubtful fits and often do not repeat.

Molecular target: Chromobox protein homolog 1 (Homo sapiens) (UniProt P83916)
Sequence of UniProt P83916 (P83916 whole entry, looked up): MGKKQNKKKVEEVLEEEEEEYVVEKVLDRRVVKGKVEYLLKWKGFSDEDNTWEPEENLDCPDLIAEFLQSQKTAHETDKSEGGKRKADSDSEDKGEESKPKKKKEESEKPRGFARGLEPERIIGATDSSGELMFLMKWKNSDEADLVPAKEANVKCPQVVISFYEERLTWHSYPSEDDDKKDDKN
Assay: HTS for Inhibitors of HP1-beta Chromodomain Interactions with Methylated Histone Tails; also: nearly all actives have a fitted effect of over 70% in size
Conditions: AlphaScreen HP1-beta / biotin-H3K9me3 peptide binding; series mostly up to 114 µM; activity change, negative = inhibition: at the top concentration
Outline: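 Compound inhibition of the preformed complex between 50 nM HP1-beta and 50 nM biotinylated H3K9me3 peptide was read by AlphaScreen. Buffer was PBS pH 7.4 with 0.01% Tween-20. Incubations ran 30 min at room temperature, with 10 ug/mL donor/acceptor beads.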
Potency is read from the fitted curve at half-maximal effect; tags tell the direction and shape of the fitted curve.

| Structure (SMILES) | Potency | activity change, negative = inhibition |
| --- | --- | --- |
| COc1ccc(-c2csc(NC3CCCCC3)n2)c(OC)c1 | inconclusive: 17.8 µM [inhibitor, full curve] |  |
| Cc1cc(/C=N/n2cnnc2)c(C)n1-c1ccc(OCc2ccc(F)cc2)cc1 | inconclusive: 28.2 µM [inhibitor, full curve] |  |
| CCC(C(=O)O)N1C(=O)/C(=C/C(C)=C/c2ccccc2)SC1=S (configuration not stated) | inconclusive: 50.1 µM [inhibitor, partial curve, poor fit] |  |
| CC1CCC(NC(=O)c2ccc3c(c2)N(Cc2ccccc2F)C(=O)c2ccccc2S3(=O)=O)CC1 (configuration not stated) |  | inactive: 29.9% |
| COc1ccc(N2CCN(C(=O)c3cnc(N4CCOCC4)c4ccccc34)CC2)cc1 |  | inactive: -0.821% [at 57 µM] |
| N#Cc1ccccc1-n1c(N)c(C(=O)N2CCCC2)sc1=S | inconclusive: 39.8 µM [inhibitor, single point] |  |
| Cc1ccc(N2C(=O)c3ccccc3C2C(=O)c2ccc(C)c(C)c2O)cc1 (configuration not stated) | inconclusive: 89.1 µM [inhibitor, single point] |  |
| CCOc1cc(CNc2ccc(N3CCOCC3)cc2)cc(Br)c1OCC | active: 44.7 µM |  |
| COc1ccc2c(c1)-c1c(sn(-c3ccccc3)c1=S)C(C)(C)N2 | inconclusive: 8.91 µM [inhibitor, full curve, poor fit] |  |
| O=C1CCCC(O)=C1Sc1ccccc1C(=O)O | active: 25.1 µM |  |
| COc1ccc(N2CCN(CC(=O)Nc3nc4c(s3)CC(C)CC4)CC2)cc1 (configuration not stated) | inconclusive: 17.8 µM [inhibitor, full curve, poor fit] |  |
| COc1ccc(N2CCN(c3ncccc3C#N)CC2)cc1 | inconclusive: 79.4 µM [inhibitor, single point] |  |
| CN(C)C(=O)c1cnc(Sc2ncc(C(F)(F)F)cc2Cl)n1C |  | inactive: 53.9% |
| Cc1cccc2nc(-c3ccco3)c(Nc3ccc4c(c3)OCCO4)n12 | inconclusive: 35.5 µM [inhibitor, full curve, poor fit] |  |
| CCOC(=O)c1c(NC(=S)N2CCCCC2)sc2c1CCN(C(=O)OCC)C2 | inconclusive: 17.8 µM [inhibitor, partial curve, poor fit] |  |
| O=C(NNS(=O)(=O)c1ccccc1[N+](=O)[O-])c1ccccc1Cl |  | inactive: 40.4% |
| CCC(c1nnnn1Cc1ccco1)N1CCN(c2cc(Cl)ccc2C)CC1 (configuration not stated) | inconclusive: 25.1 µM [inhibitor, single point] |  |
| CCN(CC)c1ccc(NC(=S)NC(=O)c2cccs2)cc1 | inconclusive: 14.1 µM [inhibitor, full curve] |  |
| CCOc1ccc(-c2c(C)nn3c(C)c(C(=O)NCCN(C)C)cnc23)cc1OCC | inconclusive: 89.1 µM [inhibitor, partial curve, poor fit] |  |
| CCN(CC)c1ccc(S(=O)(=O)N2CCOCC2)cc1NC(=O)CNCc1ccccc1 | inconclusive: 20 µM [inhibitor, full curve] |  |
| Cc1cc(C)c(NC(=O)CN)c(C)c1 | inconclusive: 89.1 µM [inhibitor, partial curve, poor fit] |  |
| CNC(=O)c1csc(Cc2c(Cl)sc3ccc(Cl)cc23)n1 | inconclusive: 70.8 µM [inhibitor, partial curve, poor fit] |  |
| CCOC(=O)C1=CN(Cc2ccco2)S(=O)(=O)N(C)C1c1ccc(F)c(Cl)c1 (configuration not stated) |  | inactive: 34.8% |

| Structure (SMILES) | Potency | activity change, negative = inhibition |
| --- | --- | --- |
| CC(C)COc1cccc(C(=O)Nc2ccc(N3CCOCC3)cc2N2CCOCC2)c1 | inconclusive: 44.7 µM [inhibitor, partial curve] |  |
| Cc1ccc(NC(=S)N/N=C/c2c(C)[nH]c3ccccc23)cc1 | inconclusive: 22.4 µM [inhibitor, full curve] |  |
| FC(F)Oc1ccc(NC(=S)NNc2ccnc3cc(Cl)ccc23)cc1 | inconclusive: 2.24 µM [inhibitor, partial curve, poor fit] |  |
| Cc1ccc(S(=O)(=O)N2CCOCC2)cc1C(=O)Nc1ccc(N2CCCCCC2)cc1 | inconclusive: 20 µM [inhibitor, partial curve, poor fit] |  |
| Nc1nc(SCc2ccccc2)ns1 | inconclusive: 31.6 µM [inhibitor, single point] |  |
| CCCNC(=S)N1CCN(Cc2ccc3c(c2)OCO3)CC1 | inconclusive: 11.2 µM [inhibitor, full curve] |  |
| Cc1nc2ccccc2c(=O)n1NC(=O)c1ccco1 |  | inactive: 57.5% |
| CCOc1ccc(S(=O)(=O)N/N=C(\C)Cc2ccc(OC)cc2)cc1 |  | inactive: 17.2% |
| O=C1NCCNC(=O)c2ccccc2OCCOc2ccccc21 |  | inactive: 29% |
| COc1ccccc1NS(=O)(=O)c1cc(NC(=O)c2ccncc2)ccc1N1CCCC1 | inconclusive: 10 µM [inhibitor, full curve, poor fit] |  |
| Cc1ccc(NC(=O)CSc2nc(N)cc(=O)[nH]2)cc1S(=O)(=O)N1CCCCC1 |  | inactive: 30% [at 57 µM] |
| CCn1c(C)c(C)c2cc(C(=O)N3CCN(c4ccccc4)CC3)ccc21 | inconclusive: 50.1 µM [inhibitor, partial curve] and inconclusive: 35.5 µM [inhibitor, partial curve] |  |
| COc1ccc(-n2cc(-c3ccccc3)c3c(=O)[nH]cnc32)cc1 | inconclusive: 70.8 µM [inhibitor, partial curve] |  |
| COc1ccc2nc3cc(Cl)ccc3c(Nc3ccc(O)c(CN4CCN(C)CC4)c3)c2c1 | active: 15.8 µM |  |
| NC(=S)NNc1ccnc2cc(Cl)ccc12 | inconclusive: 35.5 µM [inhibitor, partial curve] |  |
| Cc1cn2c(=O)c(S(=O)(=O)Nc3ccc(OC(F)(F)F)cc3)c(C)nc2s1 |  | inactive: 39.6% |
| Cc1cccc(CN2CCC(CNC(=O)CCNC(=O)Cn3ccc4ccccc4c3=O)CC2)c1 | inconclusive: 39.8 µM [inhibitor, single point] |  |
| O=C(NC(=S)Nc1ccccc1)c1ccc(-c2ccccc2)cc1 | inconclusive: 6.31 µM [inhibitor, full curve] |  |
| CCOc1ccc(NC(=O)N2CC3CCCN3c3ccccc32)cc1 (configuration not stated) | inconclusive: 50.1 µM [inhibitor, partial curve] |  |
| COc1ccc(/C=C2\SC(=O)N(CCNC(=O)CCS(=O)(=O)c3ccc(C)cc3)C2=O)cc1 | inconclusive: 39.8 µM [inhibitor, single point] |  |
| C=CCNC(=S)/N=c1\sccn1C | inconclusive: 25.1 µM [inhibitor, single point] |  |
| COC(=O)c1ccc(CCc2cc(O)ccc2O)cc1 | inconclusive: 15.8 µM [inhibitor, full curve, poor fit] |  |
| Oc1ccc2ccccc2c1C=Nc1ccccc1Br | inconclusive: 31.6 µM [inhibitor, partial curve, poor fit] |  |

| Structure (SMILES) | Potency | activity change, negative = inhibition |
| --- | --- | --- |
| CCc1ccc(C(=O)CSc2nc3cc(S(=O)(=O)N4CCOCC4)ccc3n2CC)cc1 | inconclusive: 28.2 µM [inhibitor, single point] |  |
| COc1cc(CN2CCN(Cc3ccccc3C(F)(F)F)CC2)cc(OC)c1OC | active: 25.1 µM |  |
| CN(C)c1ccc(NS(=O)(=O)c2ccc(Cl)cc2)cc1 | inconclusive: 56.2 µM [inhibitor, partial curve, poor fit] |  |
| COc1cccc(Nc2nc(-c3sc(NC(=O)c4ccccc4)nc3C)cs2)c1 | inconclusive: 3.55 µM [inhibitor, partial curve, poor fit] |  |
| Cn1nc(-c2cccnc2)nc2c(=O)n(C)c(=O)nc1-2 |  | inactive: 15.2% [at 57 µM] |
| O=C(COc1ccc(Cl)cc1Cl)Nc1ccc(C(=O)Nc2ccccc2C(=O)O)cc1 | inconclusive: 50.1 µM [inhibitor, single point] |  |
| CCOC(=O)c1nc[nH]c1C |  | inactive: 26.9% |
| CCn1c2ccccc2c2cc(CN3CCN(Cc4cccc(Cl)c4)CC3)ccc21 | inconclusive: 11.2 µM [inhibitor, partial curve, poor fit] |  |
| O=C(/C=C/c1cccs1)N1CCN(c2ccc(O)cc2)CC1 | inconclusive: 70.8 µM [inhibitor, partial curve, poor fit] |  |
| Oc1cc(O)cc(/C=C/c2ccc(O)c(O)c2)c1 | active: 15.8 µM |  |
| Oc1ccccc1N1CCN(CC(O)COC2CCCc3ccccc32)CC1 (configuration not stated) | inconclusive: 14.1 µM [inhibitor, full curve, poor fit] |  |
| CC(C)CNC(=O)C1CCN(Cc2ccc(OCc3ccccc3)cc2)CC1 | inconclusive: 15.8 µM [inhibitor, full curve, poor fit] |  |
| CC(C)=CCCC(C)CN1CCC(O)CC1 (configuration not stated) | inconclusive: 56.2 µM [inhibitor, partial curve, poor fit] |  |
| CC1CC(C)(C)N(C(=O)CN2CCN(C)CC2)c2ccccc21 (configuration not stated) | inconclusive: 14.1 µM [inhibitor, full curve, poor fit] |  |
| O=C(Nc1cccc(Cl)c1)N1CC2CCCN2c2ccccc21 (configuration not stated) | inconclusive: 22.4 µM [inhibitor, full curve, poor fit] |  |
| COc1ccccc1/C=C/C=N/n1c(-c2n[nH]c3c2CCC3)n[nH]c1=S | inconclusive: 11.2 µM [inhibitor, partial curve, poor fit] |  |
| COc1ccc(NC(=O)COC(=O)c2cc3c(s2)CCC3)cc1 | inconclusive: 50.1 µM [inhibitor, partial curve] |  |
| CCOC(=O)N1CCc2c(sc(NCc3ccc(N(CC)CC)cc3)c2C(=O)Nc2cc(OC)ccc2OC)C1 | inconclusive: 12.6 µM [inhibitor, partial curve, poor fit] |  |
| Fc1ccc(NC(=S)N/N=C/c2cccc(Br)c2)c(F)c1 |  | inactive: 7.13% |
| CC(CN1CCN(C/C=C/c2ccccc2)CC1)c1ccccc1 (configuration not stated) |  | inactive: -8.54% |
| O=c1oc2cc(Oc3c([N+](=O)[O-])cc(C(F)(F)F)cc3[N+](=O)[O-])ccc2c2c1CCCC2 | inconclusive: 7.94 µM [inhibitor, full curve] |  |
